Here are results for one molecule from patent US20230226223A1 (SOLA BIOSCIENCES, published 2023).

The target of the assay is GFP-HTTQ74 reporter construct. Briefly: cell-based or functional assay.

B1: Construct 11, JB1(17-75)-2XQBP1 (designed binder)
chain: MGTGSEFDEEIKRAYRRQALRYHPDKNKEPGAEEKFKEIAEAYDVLSDPRKREIFDRYGEEGLKGSDIGGGGSGGGGSGGGGSGGGGSAAASNWKWWPGIFDGLESNWKWWPGIFD
As for B1, the “% Aggregation (relative to Q74 alone), filter trap assay” value is 102%.
